Results from PubChem BioAssay AID1347165 (National Center for Advancing Translational Sciences (NCATS), 2019).
About 5,700 (2.6%) of roughly 220,000 compounds were called active. The shares of active, inactive and inconclusive entries below differ from those in the screen. Calls come from the whole dose curve; as a rule, active = well fitted inhibition curve with a large enough effect; inconclusive = small, poorly fitted or top-dose-only effect; inactive = no such curve, though single readings can be large or run the other way. A potency beside an inconclusive call is a rough fit, not a confirmed value.

The molecules below were run against Lysine-specific demethylase 5B (Homo sapiens) (UniProt Q9UGL1) (assay: Primary screen for KDM5B Histone Demethylases FDH-coupled qHTS). Settings: FDH-coupled NADH fluorescence (FDH is formaldehyde dehydrogenase); activity change, negative = inhibition: at 57.7 µM (top of the series) unless noted.
Outline: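 Compound dilutions met 200 nM (final) KDM5BΔAP for 10 min at room temperature before substrate addition. The substrate mix held 12.5 µM H3K4me3 with cofactors 25 µM α-ketoglutarate and 50 µM Fe²⁺. NADH signal gain over 30 min defined activity.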
Note: nearly all actives have a fitted effect of over 70% in size.
Potency is the fitted concentration of half-maximal effect; tags give direction and shape of the fitted curve.
Throughout, for activity change, negative = inhibition: 0% is about no effect.

Chain of UniProt Q9UGL1 (Q9UGL1 whole entry, looked up): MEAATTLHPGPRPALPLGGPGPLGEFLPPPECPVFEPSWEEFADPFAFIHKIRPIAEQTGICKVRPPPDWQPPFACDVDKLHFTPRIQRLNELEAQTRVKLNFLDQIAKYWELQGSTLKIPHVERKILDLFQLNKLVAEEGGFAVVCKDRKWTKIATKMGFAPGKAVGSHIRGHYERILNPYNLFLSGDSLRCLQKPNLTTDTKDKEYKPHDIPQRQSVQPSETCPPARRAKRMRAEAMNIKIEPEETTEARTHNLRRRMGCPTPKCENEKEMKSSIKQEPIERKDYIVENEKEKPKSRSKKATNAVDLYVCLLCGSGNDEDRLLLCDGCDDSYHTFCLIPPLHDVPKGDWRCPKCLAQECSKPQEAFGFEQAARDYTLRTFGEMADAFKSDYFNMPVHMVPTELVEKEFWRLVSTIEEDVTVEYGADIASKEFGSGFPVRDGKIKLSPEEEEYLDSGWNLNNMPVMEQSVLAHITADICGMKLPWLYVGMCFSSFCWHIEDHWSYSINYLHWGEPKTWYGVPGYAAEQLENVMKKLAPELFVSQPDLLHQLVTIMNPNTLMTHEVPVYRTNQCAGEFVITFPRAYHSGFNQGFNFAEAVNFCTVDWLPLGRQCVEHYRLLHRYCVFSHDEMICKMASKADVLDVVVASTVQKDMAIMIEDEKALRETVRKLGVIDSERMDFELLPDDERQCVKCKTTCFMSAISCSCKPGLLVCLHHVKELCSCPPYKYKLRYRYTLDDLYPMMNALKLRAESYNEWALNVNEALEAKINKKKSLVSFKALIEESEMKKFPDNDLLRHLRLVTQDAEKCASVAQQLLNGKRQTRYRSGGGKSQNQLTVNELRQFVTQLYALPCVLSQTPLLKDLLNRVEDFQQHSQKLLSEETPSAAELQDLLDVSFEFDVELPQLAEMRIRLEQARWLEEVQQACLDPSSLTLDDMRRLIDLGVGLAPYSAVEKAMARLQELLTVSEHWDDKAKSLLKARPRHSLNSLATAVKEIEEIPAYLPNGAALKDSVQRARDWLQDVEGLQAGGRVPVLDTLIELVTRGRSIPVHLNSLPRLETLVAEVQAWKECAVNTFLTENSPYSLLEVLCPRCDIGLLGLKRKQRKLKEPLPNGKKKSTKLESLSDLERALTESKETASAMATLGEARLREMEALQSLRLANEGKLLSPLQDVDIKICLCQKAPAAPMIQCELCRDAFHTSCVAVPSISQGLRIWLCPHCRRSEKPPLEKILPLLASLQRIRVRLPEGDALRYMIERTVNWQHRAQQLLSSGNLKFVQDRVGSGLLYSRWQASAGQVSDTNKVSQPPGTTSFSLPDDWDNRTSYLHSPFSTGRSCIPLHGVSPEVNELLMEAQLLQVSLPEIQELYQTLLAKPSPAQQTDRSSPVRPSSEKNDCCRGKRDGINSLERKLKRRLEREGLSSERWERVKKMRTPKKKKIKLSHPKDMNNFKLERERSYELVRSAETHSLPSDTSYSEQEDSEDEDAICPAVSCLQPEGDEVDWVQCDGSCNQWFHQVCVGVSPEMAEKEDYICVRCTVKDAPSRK

Row | SMILES | Potency | activity change, negative = inhibition
1 | c1cc(-c2sc(-c3ccncc3)c(-c3ccncc3)c2-c2ccncc2)ccn1 | inconclusive: 28.2 µM [inhibitor, partial curve, poor fit] | 
2 | CSc1cccc(NC(=O)Nc2cccc(-c3ccc(N4CCCC4)nn3)c2)c1 | inconclusive: 15.8 µM [inhibitor, partial curve, poor fit] | 
3 | OC1(CN2CCN(c3nccs3)CC2)CNCCOC1 (stereo not given) | inconclusive: 3.16 µM [inhibitor, full curve] | 
4 | COc1ccc(CN(C)C(=O)COc2cccc(-c3nc(-c4ccc(OC)cc4)no3)c2)cc1 |  | inactive: -2.16%
5 | Cc1ccc(NC(=O)C2CCN(c3cc(C)nc4c(-c5ccc(Cl)cc5)c(C)nn34)CC2)c(C)c1 | inconclusive: 35.5 µM [inhibitor, partial curve, poor fit] | 
6 | O=C(Cc1ccc(F)cc1)N1CCn2c(nnc2-c2ccccc2)C1 | inconclusive: 28.2 µM [inhibitor, partial curve, poor fit] | 
7 | COc1cn(-c2ccccc2)nc1C(=O)OCC(=O)NC1CCCC1 | inconclusive: 25.1 µM [inhibitor, partial curve, poor fit] | 
8 | CN1C(=O)C(O)(CC(=O)c2ccc3c(c2)OCO3)c2ccccc21 (stereo not given) | inconclusive: 28.2 µM [inhibitor, single point] | 
9 | Cn1c(=O)[nH]c(=O)c2c1nc(CN1CCN(Cc3ccccc3)CC1)n2CCCO |  | inactive: -6.04%
10 | O=C(Nc1ncn(Cc2ccccc2F)n1)c1cc(S(=O)(=O)N2CCCC2)c(Cl)cc1Cl |  | inactive: 19%
11 | CCCCc1nn2cc(-c3ccc(C)c(C)c3)nc2s1 |  | inactive: 2.21%
12 | Cc1ccc2c(c1)C(c1ccc(F)cc1)N(C(=O)c1ccc(OC(C)C)cc1)CC(=O)N2 (stereo not given) | inconclusive: 39.8 µM [inhibitor, single point] | 
13 | Cc1cc(=O)n(CC(=O)Nc2ccc(C)c(F)c2)c(N2CCc3ccccc3C2)n1 | inconclusive: 11.2 µM [inhibitor, partial curve] | 
14 | O=C(c1cnn2c(C(F)(F)F)cc(-c3ccc(F)cc3)nc12)N1CCc2ccccc2C1 | inconclusive: 35.5 µM [inhibitor, partial curve, poor fit] | 
15 | COc1ccccc1NC(=O)c1sc2nc3c(cc2c1N)CCCCCC3 | inconclusive: 15.8 µM [inhibitor, partial curve, poor fit] | 
16 | CC(C)(C)c1ccc(C(CC(=O)O)NC(=O)c2ccc(-c3ccccc3)cc2)cc1 (stereo not given) |  | inactive: -3.58%
17 | c1ccc(-c2cc(-c3nnc(-c4ccccc4)c(-c4ccccc4)n3)[nH]n2)cc1 |  | inactive: -14.4%
18 | COc1ccc2c(C)c(CC(=O)NCc3ccccc3)c(=O)oc2c1C | inconclusive: 39.8 µM [inhibitor, single point] | 
19 | CN(CC(=O)Nc1ccccc1OCC(F)(F)F)S(=O)(=O)c1ccc2ccccc2c1 |  | inactive: -16%
20 | CCCN1CCC(CC(=O)N2CCCC(N3CCN(c4ccc(F)cc4)CC3)C2)CC1 (stereo not given) |  | inactive: -5.53%
21 | O=C(Cc1ccc(F)cc1)N1CCCC(c2nn(-c3ccc(F)cc3)c(=O)[nH]2)C1 (stereo not given) |  | inactive: 8.94%
22 | Cc1cn2nc(C(=O)N3CCC(C)CC3)cc2c(N(C)Cc2ccccc2)n1 | active: 28.2 µM | 
23 | CCc1ccc(C(=O)NCc2nnc3cc(-c4nc(C(C)C)no4)ccn23)cc1 |  | inactive: -1320%
24 | O=C(CCS(=O)(=O)c1cccc2nsnc12)Nc1ccc(F)cc1 | inconclusive: 2.51 µM [inhibitor, partial curve, poor fit] | 

Row | SMILES | Potency | activity change, negative = inhibition
25 | COc1ccc(CNc2ncnc3c2CN(C2CCCNC2)C(=O)CN3C)cc1 (stereo not given) | inconclusive: 50.1 µM [inhibitor, partial curve, poor fit] | 
26 | O=C(OCC#CCSc1nc2ccccc2s1)c1cccc2ccccc12 | inconclusive: 28.2 µM [inhibitor, partial curve, poor fit] | 
27 | CC(C)(C)C(=O)NCCc1csc2nc(-c3ccc(F)cc3)nn12 |  | inactive: 15.9%
28 | COc1ccc(/C=C\C(=O)NC2CC(=O)N(c3ccccc3)C2)cc1OC (stereo not given) | inconclusive: 14.1 µM [inhibitor, partial curve, poor fit] | 
29 | COc1ccccc1-c1nc(C(=O)N(C)C)n2ccccc12 | active: 112 µM | 
30 | Cc1ccc(CN(C(=O)COc2c(C)cccc2C)C2CCS(=O)(=O)C2)o1 (stereo not given) |  | inconclusive: -31.5% [inhibitor]
31 | COCCOc1cc(N)ccc1OC | inconclusive: 25.1 µM [inhibitor, partial curve, poor fit] | 
32 | CCOc1cc(/C=C/C(=O)c2ccc(C#N)cc2)cc(Cl)c1OC |  | inactive: -23.1%
33 | CC(=O)c1ccc(N2CCN(C(=O)c3nnn4c3COC(c3ccc(F)cc3)C4)CC2)cc1 (stereo not given) | inconclusive: 35.5 µM [inhibitor, single point] | 
34 | COCCCNCCC(CCC(C)C)c1ccc2c(c1)OCO2 (stereo not given) | inconclusive: 20 µM [inhibitor, partial curve, poor fit] | 
35 | Cc1ccc(CN2CCn3c(nn(-c4ccc([N+](=O)[O-])cc4)c3=O)C2)cc1 | inconclusive: 25.1 µM [inhibitor, partial curve] | 
36 | CCOC(=O)Cn1nc(C)c(NC(=O)COc2ccc(Cl)cc2C)c1C | inconclusive: 12.6 µM [inhibitor, partial curve, poor fit] | 
37 | CCOc1ccccc1NC(=O)Cn1ccn(Cc2ccc(C)cc2)c(=O)c1=O | inconclusive: 31.6 µM [inhibitor, partial curve, poor fit] | 
38 | Cc1ccc2[nH]c(C(=O)NCc3ccc(C(=O)N4CCN(C)CC4)cc3)cc2c1 | inconclusive: 28.2 µM [inhibitor, partial curve, poor fit] | 
39 | Cc1ccc(NC(=O)c2cc3n(n2)CC(c2ccc(Cl)cc2)OC3)cc1 (stereo not given) | active: 20 µM | 
40 | COc1cccc(CN2Cc3cc(NC(=O)CC(C)(C)C)ccc3OC(C)C2=O)c1OC (stereo not given) | inconclusive: 28.2 µM [inhibitor, partial curve, poor fit] | 
41 | COC(=O)c1c(Cc2cc(Cl)ccc2Cl)c[nH]c1C |  | inactive: 12.6%
42 | Cc1ccc(-c2cc(C(=O)Oc3ccccc3)c3cc(C)ccc3n2)cc1 | inconclusive: 2 µM [inhibitor, partial curve, poor fit] | 
43 | Cc1ccc(C(NC(=O)c2cc(=O)c3cc(C)ccc3o2)C2CC2)cc1 (stereo not given) |  | inactive: 1.69%
44 | CCC(NC(=O)c1cc(OC)ccc1OC1CCN(C(C)=O)CC1)c1ccc(F)cc1 (stereo not given) | active: 28.2 µM | 
45 | CC(CCc1ccccc1)NC(=O)C(C)O (stereo not given) |  | inactive: 20.6%
46 | CCOC(=O)C1CCCN(c2ccc(C#N)cn2)C1 (stereo not given) |  | inactive: 6.75%
47 | COc1ccccc1CNC(=O)c1c(C)sc2ccn(Cc3ccc(F)cc3)c(=O)c12 |  | inactive: -4.81%
48 | COc1nc(C(=O)NCCCN2CCCC2=O)cc2ccccc12 |  | inactive: -15.6%

Row | SMILES | Potency | activity change, negative = inhibition
49 | Fc1ccccc1Cn1c(-c2ccccc2)nc2ccccc21 | inconclusive: 35.5 µM [inhibitor, partial curve, poor fit] | 
50 | CC(C)C(=O)N1CCC2(CC1)OC(=O)N(Cc1ccccc1)C2(C)c1ccccc1 (stereo not given) |  | inactive: -6.02% [at 86.2 µM]
51 | O=C(Cn1nc(Br)nc1Br)c1ccc(Cl)cc1 | inconclusive: 39.8 µM [inhibitor, single point] | 
52 | CCC(=O)OC1=C(C(C)=O)N(C(C)C)S(=O)(=O)c2ccccc21 |  | inactive: 9.39%
53 | O=C(CSc1nnc(-c2ccccc2O)o1)NC1CCCCC1 | inconclusive: 28.2 µM [inhibitor, single point] | 
54 | COCCNc1nc2cc(C(=O)N3CC[C@H]4CNC[C@H]43)ccc2n1C | inconclusive: 17.8 µM [inhibitor, partial curve, poor fit] | 
55 | CC(CCc1ccccc1)NC(=O)Cn1ccn2nc3c(c2c1=O)CCCC3 (stereo not given) | active: 20 µM | 
56 | Clc1ccccc1CNc1ncnc2c1c(-c1ccccc1)cn2-c1ccccc1 | inconclusive: 25.1 µM [inhibitor, partial curve, poor fit] | 
57 | Cc1ccc(C)c(Cn2c3ccccc3c3cnn(CC(=O)NCc4ccccc4)c(=O)c32)c1 | inconclusive: 17.8 µM [inhibitor, partial curve, poor fit] | 
58 | O=C(c1ccccn1)N1CCCC(Cc2nc(C3CCOCC3)no2)C1 (stereo not given) |  | inactive: 21.6%
59 | O=C(NCCOc1ccccc1)C1CN(Cc2ccccc2)C(=O)N1 (stereo not given) |  | inactive: -7.82% [at 86.2 µM]
60 | O=C(/C=C/c1cccc(C(F)(F)F)c1)N1CCN(C(=O)C2CC2)CC1 |  | inactive: 1.89%
61 | Cc1cccc2nc(-c3cccc(NS(=O)(=O)c4ccccc4)c3)cn12 | inconclusive: 15.8 µM [inhibitor, partial curve, poor fit] | 
62 | Brc1ccc(-c2noc(Cc3ccccc3)n2)cc1 |  | inactive: 22.2%
63 | CC(C)N1C(=O)c2ccccc2N(Cc2ccccc2)S1(=O)=O | inconclusive: 35.5 µM [inhibitor, partial curve, poor fit] | 
64 | CCOC(=O)c1cc(-c2ccccc2)n(-c2cccc(C(=O)Nc3cc(OC)cc(OC)c3)c2)c1C | inconclusive: 28.2 µM [inhibitor, partial curve, poor fit] | 
65 | Cc1cc(N2CCN(C(C(=O)O)c3c[nH]c4ccc(Br)cc34)CC2)nc2ccccc12 (stereo not given) | inconclusive: 31.6 µM [inhibitor, single point] | 
66 | O=C1CCC(C(=O)N(CC2CCN(Cc3ccccc3F)CC2)CC2CCCO2)=NN1 (stereo not given) |  | inactive: -11.4%
67 | N#Cc1cccnc1NCCNc1cc(Cl)nc(N)n1 | inconclusive: 25.1 µM [inhibitor, partial curve, poor fit] | 
68 | CC1(C(=O)NCC2CCCO2)CCCc2cnc(Nc3ccccc3)nc21 (stereo not given) |  | inactive: -3.33% [at 86.2 µM]
69 | COc1ccc(CN(C(=O)c2ccco2)c2ccc(CC(=O)NCc3ccc(F)cc3)cc2)cc1 | inconclusive: 31.6 µM [inhibitor, partial curve] | 
70 | O=C(Nc1cccc(Br)c1)N1CCC(CN2CCCCCC2)CC1 | inconclusive: 17.8 µM [inhibitor, partial curve, poor fit] | 
